About 7,500 (2.1%) of roughly 360,000 compounds were called active. The shares of active, inactive and inconclusive entries below differ from those in the screen. The call rests on the fitted dose curve; in most records, active means well fitted cell-killing curve with a large enough effect; inconclusive means small, poorly fitted or top-dose-only effect, or effect the other way, or another doubt; inactive means no such curve, though single readings can be large or run the other way. No potency is given beside an inconclusive call; the fits are too rough.
Experiment: qHTS for induction of synthetic lethality in tumor cells producing 2HG: qHTS for the HT-1080-IDH1KD cell line;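 on activity, negative = toxicity: 0% = DMSO wells and -100% = cell-free medium wells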
Conditions: HT-1080 IDH1 knockdown viability, ATP luminescence, 48 h; activity, negative = toxicity: at 46.1 µM (top of the series) unless noted
In short: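 Knockdown cells (IDH1KD HT-1080) received compounds 2 h after plating at 750 cells/well and were kept 48 h at 37 °C in 5% FBS RPMI. A CellTiter-Glo luminescence read gave % activity for curve fitting.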
Potency means the concentration at half of the fitted maximal effect; tags describe the fitted curve by direction and shape.

Compound	Potency	activity, negative = toxicity
COc1cc(NCCCCCCN)c2ncccc2c1OC	inconclusive [cytotoxic, partial curve]	–
COc1ccccc1CN1CCNC(=O)C1CC(=O)NCCc1cnccn1 (stereo unspecified)	inactive	–
CC1(C)NC(=S)NC1=S	inactive	–
CCSc1nc2cc(OC)c(OC)cc2c(=O)n1CC	inconclusive [cytotoxic, partial curve, poor fit]	–
CCC(=O)Nc1cc(C(=O)O)ccc1S(=O)(=O)c1ccc(C)cc1	inactive	–
C=CCOc1c(Cl)cc(CNc2ccc3[nH]c(=O)[nH]c3c2)cc1OC	inconclusive [cytotoxic, single point]	–
CC(C)c1ccc(NC(=O)C2Cc3c(-c4ccc5c(c4)OCO5)ccnc3O2)cc1 (stereo unspecified)	inconclusive [cytotoxic, single point]	–
CCOC(=O)C[n+]1c(C)ccc2c1CCC2	inactive	–
CCOC(=O)/C(=C/c1c(C)n(C)c2ccc([N+](=O)[O-])cc12)C(C)=O	inconclusive [cytotoxic, single point]	–
CC(=O)C1=C(C)NC(SCC(=O)c2ccc(F)cc2)=C(C#N)C1c1ccco1 (stereo unspecified)	inconclusive [cytotoxic, single point]	–
Cc1ccc2cccc(S(=O)(=O)N3CCN(c4cccc(Cl)c4)CC3)c2n1	inconclusive [cytotoxic, single point]	–
COc1cc(COCC(O)CN2CCN(CCN3C(=O)c4cccc5cccc(c45)C3=O)CC2)cc(OC)c1OC (stereo unspecified)	inactive	–
CCOc1ccc(CN(C)C(=O)c2ccc(S(=O)(=O)N(C)c3ccccc3OC)cc2)cc1	inactive	–
CN(C)c1ccc(C=c2c3ccccc3n3c2c2c([n+]3C)CCCC2)cc1	active: 6.51 µM	–
COc1ccc(NC(=O)C(=O)NNC(=O)c2ccc(Cl)cc2Cl)cc1	inconclusive [cytotoxic, single point]	–
O=C(N/N=C/c1ccc(-c2cccc(C(F)(F)F)c2)o1)c1cccc(F)c1	inconclusive [cytotoxic, single point]	–
Cc1cccc(C)c1NC(=O)C[N+](C)(C)CC(O)COc1cccc2ccccc12 (stereo unspecified)	inconclusive [cytotoxic, partial curve]	–
CC(=O)OCC(=O)Nc1ccc(Br)c(C)c1	inactive	–
Cc1cc(S(=O)(=O)Nc2cc(C)c(O)c(C)c2)c(C)s1	inconclusive [cytotoxic, partial curve, poor fit]	–
O=C(Cn1c(=O)c2sccc2n(Cc2cccc([N+](=O)[O-])c2)c1=O)NCCc1ccccc1	inconclusive [cytotoxic, single point]	–
O=C(c1c[nH]c(C(=O)C(Cl)(Cl)Cl)c1)c1ccc(F)cc1Cl	active: 25.9 µM	–
CCn1c(=O)c2cc(C(=O)NCCN(C)C)sc2c2ccccc21	inconclusive [cytotoxic, single point]	–
NC(Cc1ccc(C(F)(F)F)cc1)c1csc(Nc2ccc(C(=O)NCc3ccco3)cn2)n1 (stereo unspecified)	active: 7.31 µM	–

Compound	Potency	activity, negative = toxicity
CCCCNC(=O)c1cc(-c2ccc3c(c2)OCO3)on1	inconclusive [cytotoxic, partial curve]	–
CCc1cc(SC#N)cc(C)c1NC(=O)CCl	inconclusive [cytotoxic, single point]	–
COc1cccc(C(=O)Nc2ccc3c(c2)OCO3)c1OC	inactive	–
O=C(Nc1ccc(C(=O)N2CCCC2)cc1)c1ccccc1F	–	inconclusive: -30.6% [cytotoxic]
Cc1nc(NC(=O)CSc2cc(C)c3ccccc3n2)c(Cl)cc1Cl	inconclusive [cytotoxic, single point]	–
CO/C=C\C=C/c1nnn(-c2ccc(Cl)cc2)n1	inconclusive [rising, single point]	–
COc1ccc(-c2csc(NC(=S)NC(=O)/C=C/c3ccco3)n2)cc1Br	active: 2.59 µM	–
O=C(O)c1cccc(NC(=S)N/N=C/c2ccccc2OCc2ccc(Br)cc2)c1	inconclusive [cytotoxic, single point]	–
O=C(Oc1cccc([N+](=O)[O-])c1)c1cc(-c2ccccc2)nc2ccccc12	inconclusive [cytotoxic, single point]	–
CC(=O)Nc1ccc(S(=O)(=O)n2nc(-c3ccc(C)cc3)nc2N)cc1	inconclusive [cytotoxic, single point]	–
CNC(=O)c1c(NC(=O)c2ccc(S(=O)(=O)N3CCCCC3C)cc2)sc2c1CCN(C)C2 (stereo unspecified)	inconclusive [cytotoxic, single point]	–
CCOC(=O)C(=CNc1ccccc1C)C(=O)OCC	inactive	–
COC(=O)c1cc(=O)n(CCc2ccc(OC)c(OC)c2)c(=Nc2ccc(F)c(Cl)c2)s1	inconclusive [cytotoxic, single point]	–
CCOC(=O)c1[nH]c(C)c(C(=O)Nc2cc(OC)ccc2OC)c1C	active: 0.562 µM	–
COc1ccc(Cl)cc1NC(=O)CN1CCC(n2nnc3cc(C)ccc32)CC1	inconclusive [cytotoxic, partial curve]	–
CC(C)Cc1nc2oc3c(Cl)ncnc3c2c2c1CCC2	inconclusive [cytotoxic, partial curve, poor fit]	–
O=C1c2ccccc2C(=O)N1CCC#Cc1ccc2cc(CCCO)oc(=O)c2c1	inactive	–
CCCCC(CC)C(=O)Nc1cc(C(=O)NCc2ccc(C)cc2)ccc1N1CCC2(CC1)CC(c1cccc(Br)c1)=NO2 (stereo unspecified)	inactive	–
COc1cccc(OCCn2cc(C(=O)c3ccco3)c3ccccc32)c1	inconclusive [cytotoxic, single point]	–
Cc1ccc(NC(=O)NNC(=O)c2cc3ccccc3cc2O)cc1	inactive	–
CCCn1c(=N)n(CC(=O)O)c2ccccc21	inactive	–
CCc1ccc(-c2cc(C)no2)cc1S(=O)(=O)NCCc1ccccc1	inconclusive [cytotoxic, single point]	–
Cc1cccc(OCC(=O)Nc2ccncc2)c1C	inconclusive [cytotoxic, partial curve]	–
